According to publication PMC4275180:
Substitutions are numbered along the chain they refer to. Names may count otherwise. Results are given in words; binding and its absence hold for the method and conditions named. In cells and extracts the contact can be indirect. Some binding calls cover weakened binding; strength is not graded here. Where a sequence is shown, tags or fusion partners need not be part of it. Each block holds one molecule with its values, some of them ahead of it.

By UniProt entry, the sequences of proteins in these tests, tags left out. Where a name states a change or a piece, a line headed by the entry shows the natural chain unless it says otherwise.
UniProt P42224: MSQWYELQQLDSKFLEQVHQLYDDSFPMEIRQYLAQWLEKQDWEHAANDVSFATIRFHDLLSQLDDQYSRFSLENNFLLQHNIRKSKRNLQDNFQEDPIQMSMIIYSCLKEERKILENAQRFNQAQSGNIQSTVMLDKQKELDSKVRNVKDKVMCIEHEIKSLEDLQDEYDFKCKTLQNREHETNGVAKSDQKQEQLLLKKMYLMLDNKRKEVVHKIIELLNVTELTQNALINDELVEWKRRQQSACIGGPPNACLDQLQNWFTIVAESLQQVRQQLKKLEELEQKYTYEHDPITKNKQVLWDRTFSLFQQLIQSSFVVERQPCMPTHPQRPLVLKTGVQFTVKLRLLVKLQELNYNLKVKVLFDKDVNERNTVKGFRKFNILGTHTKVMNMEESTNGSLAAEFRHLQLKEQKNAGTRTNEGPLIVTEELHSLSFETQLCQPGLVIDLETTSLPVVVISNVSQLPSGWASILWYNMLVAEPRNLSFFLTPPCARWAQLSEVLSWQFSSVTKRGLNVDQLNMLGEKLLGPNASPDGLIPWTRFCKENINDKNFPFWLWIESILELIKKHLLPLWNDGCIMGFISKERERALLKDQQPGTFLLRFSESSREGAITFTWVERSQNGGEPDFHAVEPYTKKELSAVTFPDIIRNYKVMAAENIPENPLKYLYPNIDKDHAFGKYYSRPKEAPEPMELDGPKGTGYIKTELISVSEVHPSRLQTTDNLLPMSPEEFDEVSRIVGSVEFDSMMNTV

Experiments:
[1] = molecular target: T1, GST-KDM3A (1-394) S264D (UniProt Q9Y4C1); experiment: pull-down; GST pull-down with recombinant 1-394 fragments of KDM3A (wild type, S/A, S/D) and HA-Stat1(129-317)
T1 sequence: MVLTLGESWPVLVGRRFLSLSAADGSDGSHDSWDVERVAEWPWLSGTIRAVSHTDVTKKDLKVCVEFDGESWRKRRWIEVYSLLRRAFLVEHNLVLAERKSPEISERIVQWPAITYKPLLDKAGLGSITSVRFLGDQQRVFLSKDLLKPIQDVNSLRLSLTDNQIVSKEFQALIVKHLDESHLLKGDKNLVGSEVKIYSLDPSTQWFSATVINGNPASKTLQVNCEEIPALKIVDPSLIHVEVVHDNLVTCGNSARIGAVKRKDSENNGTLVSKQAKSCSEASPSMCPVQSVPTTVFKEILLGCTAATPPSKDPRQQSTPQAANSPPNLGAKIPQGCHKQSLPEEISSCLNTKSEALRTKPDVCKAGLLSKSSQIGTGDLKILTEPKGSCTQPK

[2] = molecular target: T2, GST-KDM3A (1-394), wild type (UniProt Q9Y4C1); experiment: as above
T2 sequence: T1 sequence with D264S

[3] = molecular target: T3, GST-KDM3A (1-394) S264A (UniProt Q9Y4C1); experiment: as above
T3 sequence: T1 sequence with D264A

[4] = molecular target: T4, FLAG-KDM3A-S264D (214-306) (UniProt Q9Y4C1); experiment: co-IP; FLAG-KDM3A-S264D (214-306) co-transfected with an HA-Stat1 fragment into Jurkat cells; whole cell extract, IP anti-FLAG; western blot anti-HA
T4 sequence: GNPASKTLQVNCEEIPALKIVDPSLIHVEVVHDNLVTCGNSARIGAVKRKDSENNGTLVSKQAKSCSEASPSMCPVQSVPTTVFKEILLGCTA

[5] = molecular target: HA-Stat1 (129-317), truncation mutant S5 (UniProt P42224); experiment: co-IP; FLAG-KDM3A construct co-transfected with HA-Stat1 construct into Jurkat cells, with or without heat shock; whole cell extract, IP anti-HA; western blot anti-FLAG
[6] = molecular target: HA-Stat1, full length (S1) (UniProt P42224); experiment: as above
[7] = molecular target: HA-Stat1 (231-317) (UniProt P42224); experiment: as above

B1: FLAG-KDM3A-S264D, full length (protein, UniProt Q9Y4C1 1-1321)
chain: MVLTLGESWPVLVGRRFLSLSAADGSDGSHDSWDVERVAEWPWLSGTIRAVSHTDVTKKDLKVCVEFDGESWRKRRWIEVYSLLRRAFLVEHNLVLAERKSPEISERIVQWPAITYKPLLDKAGLGSITSVRFLGDQQRVFLSKDLLKPIQDVNSLRLSLTDNQIVSKEFQALIVKHLDESHLLKGDKNLVGSEVKIYSLDPSTQWFSATVINGNPASKTLQVNCEEIPALKIVDPSLIHVEVVHDNLVTCGNSARIGAVKRKDSENNGTLVSKQAKSCSEASPSMCPVQSVPTTVFKEILLGCTAATPPSKDPRQQSTPQAANSPPNLGAKIPQGCHKQSLPEEISSCLNTKSEALRTKPDVCKAGLLSKSSQIGTGDLKILTEPKGSCTQPKTNTDQENRLESVPQALTGLPKECLPTKASSKAELEIANPPELQKHLEHAPSPSDVSNAPEVKAGVNSDSPNNCSGKKVEPSALACRSQNLKESSVKVDNESCCSRSNNKIQNAPSRKSVLTDPAKLKKLQQSGEAFVQDDSCVNIVAQLPKCRECRLDSLRKDKEQQKDSPVFCRFFHFRRLQFNKHGVLRVEGFLTPNKYDNEAIGLWLPLTKNVVGIDLDTAKYILANIGDHFCQMVISEKEAMSTIEPHRQVAWKRAVKGVREMCDVCDTTIFNLHWVCPRCGFGVCVDCYRMKRKNCQQGAAYKTFSWLKCVKSQIHEPENLMPTQIIPGKALYDVGDIVHSVRAKWGIKANCPCSNRQFKLFSKPASKEDLKQTSLAGEKPTLGAVLQQNPSVLEPAAVGGEAASKPAGSMKPACPASTSPLNWLADLTSGNVNKENKEKQPTMPILKNEIKCLPPLPPLSKSSTVLHTFNSTILTPVSNNNSGFLRNLLNSSTGKTENGLKNTPKILDDIFASLVQNKTTSDLSKRPQGLTIKPSILGFDTPHYWLCDNRLLCLQDPNNKSNWNVFRECWKQGQPVMVSGVHHKLNSELWKPESFRKEFGEQEVDLVNCRTNEIITGATVGDFWDGFEDVPNRLKNEKEPMVLKLKDWPPGEDFRDMMPSRFDDLMANIPLPEYTRRDGKLNLASRLPNYFVRPDLGPKMYNAYGLITPEDRKYGTTNLHLDVSDAANVMVYVGIPKGQCEQEEEVLKTIQDGDSDELTIKRFIEGKEKPGALWHIYAAKDTEKIREFLKKVSEEQGQENPADHDPIHDQSWYLDRSLRKRLHQEYGVQGWAIVQFLGDVVFIPAGAPHQVHNLYSCIKVAEDFVSPEHVKHCFWLTQEFRYLSQTHTNHEDKLQVKNVIYHAVKDAVAMLKASESSFGKP
binding [5]: binds | binding [6]: binds

B2: FLAG-KDM3A-S264D (214-306) (domain or fragment, UniProt Q9Y4C1 214-306)
chain: T4 sequence
binding [7]: binds | binding [5]: binds

B3: FLAG-KDM3A (214-306), wild type, in heat-shocked cells (domain or fragment, UniProt Q9Y4C1 214-306)
chain: T4 sequence with D51S
modifications: phosphoserine at 264 (the paper calls it the 93aa fragment of p-KDM3A under HS)
binding [7]: binds

Second part, the molecule after the results:

binding [1]: binds | binding [2]: no binding | binding [3]: no binding
Molecule: HA-Stat1 (129-317), truncation mutant S5 (from UniProt P42224 129-317) (domain or fragment)

binding [4]: binds
Molecule: HA-Stat1 (231-317) (from UniProt P42224 231-317) (domain or fragment)
